Measurements from PubChem BioAssay AID360 (National Center for Advancing Translational Sciences (NCATS), 2006).
Among all 48,000 compounds or so, about 550 (1.1%) were called active. About 4% were inconclusive and are not listed. Rule as the data show it: active = potency below about 15 µM; inconclusive = mostly about 16 µM to 33 µM; inactive = weaker than that. The list shows a part of the results.

Biological target: Lysosomal acid glucosylceramidase (Homo sapiens) (UniProt P04062)
Assay: Glucocerebrosidase;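 also: the screen sought inhibitors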
Details: purified enzyme, resorufin glucoside fluorescence (screen aimed at inhibitors), 20 min
Outline: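 Normal human glucocerebrosidase (0.2 nM final) was assayed with resorufin β-D-glucopyranoside (30 uM final) in 50mM citric acid/KH2PO4, 10mM sodium taurocholate, 0.01% tween-20, pH 5.9. Compounds were titrated; fluorescence (Ex 548, Em 600) read after 20 min at RT.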
Potency is read from the fitted curve at half-maximal effect.

UniProt P04062, sequence (P04062 whole entry, looked up): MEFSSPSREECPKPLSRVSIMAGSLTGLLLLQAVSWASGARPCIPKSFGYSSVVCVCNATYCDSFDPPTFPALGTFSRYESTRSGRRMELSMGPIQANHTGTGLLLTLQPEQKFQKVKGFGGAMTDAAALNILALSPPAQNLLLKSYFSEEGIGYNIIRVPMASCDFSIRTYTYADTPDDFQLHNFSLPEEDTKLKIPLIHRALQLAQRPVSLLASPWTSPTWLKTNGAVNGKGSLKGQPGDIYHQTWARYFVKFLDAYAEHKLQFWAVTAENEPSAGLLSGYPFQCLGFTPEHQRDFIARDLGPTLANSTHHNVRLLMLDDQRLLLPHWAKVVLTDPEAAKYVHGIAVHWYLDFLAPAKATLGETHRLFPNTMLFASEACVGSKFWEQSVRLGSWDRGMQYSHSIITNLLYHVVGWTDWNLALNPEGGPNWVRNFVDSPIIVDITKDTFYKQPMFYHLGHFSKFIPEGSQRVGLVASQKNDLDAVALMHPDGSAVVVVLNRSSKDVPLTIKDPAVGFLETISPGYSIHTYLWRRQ

Potency, inactive:
O=C1CC(C(=O)N(c2cccc(F)c2)C(C(=O)NC2CCCC2)c2ccccn2)CS1 (configuration not stated) > 76.9 µM
O=C(Nc1ccc(Cl)c(Cl)c1)N1CCC(N2CCCCC2)CC1 > 76.9 µM
CC(C)(C)c1cc(C(=O)O)c(CN2CCCCC2)o1 > 76.9 µM
Cn1c(CNC(=O)C(C)(C)C)nc2ccccc21 > 76.9 µM
O=c1c[n+]([O-])c2ccccc2n1OCc1c(F)cccc1F > 76.9 µM
O=C(CCc1nc2ccccc2[nH]1)Nc1ccc2c(c1)OCO2 > 76.9 µM
Cc1cc(C)c2[nH]c(=O)c(C(c3nnnn3CC3CCCO3)N3CCCC(C)C3)cc2c1 (configuration not stated) > 76.9 µM
CC(=O)Nc1cc(C(=O)O)ccc1S(=O)(=O)c1ccc(C)cc1 > 76.9 µM
O=C(Nc1ccc2c(c1)OCO2)C1CCCN1C(=O)NCc1ccccc1 (configuration not stated) > 76.9 µM
O=C(NC1CCS(=O)(=O)C1)c1cccc(S(=O)(=O)N2CCOCC2)c1 (configuration not stated) > 76.9 µM
COCc1nnc(NC(=O)CSc2ccc(C)cc2)s1 > 76.9 µM
CCOC(=O)C1CCCN(C(=O)c2cnn3c(C(F)(F)F)cc(-c4ccccc4)nc23)C1 (configuration not stated) > 76.9 µM
CCc1cc2c(=O)n(-c3ccccc3)cnc2s1 > 76.9 µM
Cc1nnc(NC(=O)c2ccc3ccccc3c2)o1 > 76.9 µM
O=C1CC(c2ccc(F)cc2)C2=C(CCCC2=O)N1 (configuration not stated) > 76.9 µM
C=CCn1c(=O)c2ccccc2n2c(SCC(=O)NCCc3ccccc3)nnc12 > 76.9 µM
COc1cccc(CNC(=O)C2CCCN(S(=O)(=O)c3c(C)n[nH]c3C)C2)c1 (configuration not stated) > 76.9 µM
Cc1c(C(=O)N(Cc2cccs2)C2CCS(=O)(=O)C2)oc2ccccc12 (configuration not stated) > 76.9 µM
CCOc1ccc2c(c1)N(C(=O)CN1C(=O)CCC1=O)C(C)(C)C=C2C > 76.9 µM
CCCSc1nnc(Cc2cc(=O)[nH]c(=O)[nH]2)n1-c1cc(C)ccc1C > 76.9 µM
COc1ccc(-c2cc(N)n(CCC#N)n2)c(OC)c1 > 76.9 µM
CCC(C(=O)Nc1nc(C)cs1)c1ccccc1 (configuration not stated) > 76.9 µM
Cc1cccc2cc(COC(=O)c3ccccc3)c(=O)[nH]c12 > 76.9 µM
CCCC(=O)N1CCN(c2ccc(NC(=O)c3ccc(Br)o3)cc2)CC1 > 76.9 µM
CCOC(=O)CC1C(=O)NC2CCCCC2N1C(=O)Nc1ccc(Cl)cc1 (configuration not stated) > 76.9 µM
CCOC(=O)c1sc2nc(SCC(=O)NCc3ccco3)n(Cc3ccccc3)c(=O)c2c1C > 76.9 µM
Cc1cc2c(c(=O)n1C)C(Cc1ccccc1)C(C#N)=C(N)O2 (configuration not stated) > 76.9 µM
O=C(COC(=O)C1CCCCC1)Nc1ccc(N2CCCCC2)cc1 > 76.9 µM
CC1Cc2cc(/C(O)=C3/C(=O)C(=O)N(Cc4ccco4)C3c3cccs3)ccc2O1 (configuration not stated) > 76.9 µM
O=C(O)c1ccccc1OCCOCCOc1ccccc1C(=O)O > 76.9 µM
CC(C)(C)n1nc2c(c1NC(=O)c1cccc(C(F)(F)F)c1)CS(=O)C2 (configuration not stated) > 76.9 µM
CC1CCN(CC(=O)NCc2ccccc2)CC1 > 76.9 µM
COc1ccccc1OCCn1c(=O)sc2ccccc21 > 76.9 µM
COc1ccc(C2=Nn3c(nnc3-c3ccccc3OC)SC2)cc1OC > 76.9 µM
CCOC(=O)C1CCCN(S(=O)(=O)Cc2ccccc2)C1 (configuration not stated) > 76.9 µM
CCOc1ccc(CN2CCC(C(=O)N3CCN(c4ccccc4F)CC3)CC2)cc1OC > 76.9 µM
CCOC(=O)c1cc(NC(=O)c2cnccn2)cc(C(=O)OCC)c1 > 76.9 µM
C=CCc1cccc2cc(C(=O)N3CCN(C(=O)c4ccco4)CC3)c(=O)oc12 > 76.9 µM
CCCc1nc2ccccc2c(=O)n1/N=C/c1ccc(O)cc1 > 76.9 µM
CC(C)(C)c1ccccc1OCC(=O)NCCC(=O)O > 76.9 µM
O=C(CN1C(=O)c2ccccc2S1(=O)=O)Nc1ccc(S(=O)(=O)N2CCCC2)cc1 > 76.9 µM
O=C(CCN1C(=O)c2ccccc2S1(=O)=O)NCc1ccco1 > 76.9 µM
Cc1oc(-c2cc(Cl)ccc2Cl)cc1-c1nn2c(C)nnc2s1 > 76.9 µM
CCC(=O)N(CCO)Cc1cc2ccc(C)c(C)c2[nH]c1=O > 76.9 µM
NC(CC(=O)O)c1cccc(OCc2ccccc2)c1 (configuration not stated) > 76.9 µM
CC1CCCC(NC(=O)CC2Nc3ccccc3NC2=O)C1C (configuration not stated) > 76.9 µM
O=S(=O)(c1ccc(Oc2ncnc3scc(-c4ccccc4)c23)cc1)N1CCOCC1 > 76.9 µM
O=C(CN1C(=O)c2ccccc2S1(=O)=O)NCCSc1ccccc1 > 76.9 µM
CCn1c(C)nc2c(=O)oc3ccccc3c21 > 76.9 µM
CCC(c1nnnn1Cc1ccccc1)N(Cc1ccco1)Cc1cc2cc(OC)ccc2[nH]c1=O (configuration not stated) > 76.9 µM
CCC(C)N(C(=O)Cn1nnc2ccccc21)C(C(=O)NCc1ccco1)c1cccc(OC)c1 (configuration not stated)
CCOC(=O)CN(C(=O)Cn1nnc2ccccc21)C(C(=O)NCCOC)c1ccccc1 (configuration not stated) > 76.9 µM
Cc1ccc(NC(=O)C2CCCN2C(=O)Oc2ccccc2)cc1 (configuration not stated) > 76.9 µM
COc1c2c(nc3occc13)C(CCC(C)(C)O)(OC)C(O)CC2 (configuration not stated) > 76.9 µM
CCOC(=O)CNC(=O)CSc1ncnc2c1cnn2-c1ccc(Cl)cc1 > 76.9 µM
CC(C)N1C(=O)CN(C2CCCCCC2)C(=O)C1c1ccccc1F (configuration not stated) > 76.9 µM
C=CCOC(=O)C1=C(C)N=C2SCCC(=O)N2C1c1cccs1 (configuration not stated) > 76.9 µM
